Measurements taken from a collection of fitness landscapes (doi:10.1016/j.celrep.2020.107928).
In all, about 81,000 sequences were measured (“one-hybrid fitness for binding parS DNA”: median about -0.17, highest 2% from about 0.51 on). This is one part of the list.

B1: Caulobacter ParB omega fusion; a variant is named by its letters at X, in order, B8GW30 (parent)
chain: MESVVVGEPGMSEGRRGLGRGLSALLGEVDAAPAQAPGEQLGGSREAPIEILQRNPDQPRRTFREEDLEDLSNSIREKGVLQPILVRPSPDTAGEYQIVAGERAWRAAQRAGLKTVPIMVRELDDLAVLEIGIIENVQRADLNVLEEALSYKVLMEKFERTQENIAQTIGKSXSHVANXMRLLXLPDEVQSYLVSGELTAXHARAIAAAADPVALAKQIIEGGLSVRETEALARKAPNLSAGKSKGGRPPRVKDTDTQALESDLSSVLGLDVSIDHRGSTGTLTITYATLEQLDDLCNRLTRGI

Variants of: B1
Experiment: one-hybrid fitness for binding parS DNA (scaled: cognate 1, non-cognate 0); higher = stronger binding
Conditions: with parS DNA site
How it was run: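 On M9-minus-histidine containing 0.1 mM IPTG and 5 mM 3-AT, E. coli USO cells with a HIS3 reporter, site 19 bp from the promoter, grew 48 hours at 37°C to select Caulobacter ParB libraries randomised at four specificity codons. Plasmids from before and after were Illumina-sequenced, with three replicate libraries pooled and variants under 10 reads left out. Fitness is the log change in variant-to-wild-type read ratio, rescaled against cognate and non-cognate.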

| Variant | one-hybrid fitness for binding parS DNA |
| --- | --- |
| TNQG | ≤ 0.2 |
| MSIT | ≤ 0.2 |
| SVGC | ≤ 0.2 |
| WPTQ | ≤ 0.2 |
| KIGS | ≤ 0.2 |
| VAND | ≤ 0.2 |
| IPTY | ≤ 0.2 |
| HARP | ≤ 0.2 |
| PNNL | ≤ 0.2 |
| NKDI | 0.206 |
| VYKC | ≤ 0.2 |
| RACL | ≤ 0.2 |
| PTHK | ≤ 0.2 |
| CNMP | ≤ 0.2 |
| CYHS | ≤ 0.2 |
| WRAP | ≤ 0.2 |
| PFPQ | ≤ 0.2 |
| PYPM | ≤ 0.2 |
| LLHE | ≤ 0.2 |
| RLFF | 0.207 |
| LMKR | ≤ 0.2 |
| LQLS | ≤ 0.2 |
| LGIC | ≤ 0.2 |
| HSME | ≤ 0.2 |
| RNGT | 0.696 |

| Variant | one-hybrid fitness for binding parS DNA |
| --- | --- |
| PIMA | ≤ 0.2 |
| MSSC | ≤ 0.2 |
| QDCV | ≤ 0.2 |
| RDPM | ≤ 0.2 |
| QGYE | ≤ 0.2 |
| THHT | ≤ 0.2 |
| QETP | ≤ 0.2 |
| HLSM | ≤ 0.2 |
| AIMR | ≤ 0.2 |
| FRLV | ≤ 0.2 |
| KTLQ | ≤ 0.2 |
| EHQS | ≤ 0.2 |
| RWAA | 0.378 |
| RNSD | ≤ 0.2 |
| WNQG | ≤ 0.2 |
| RVVF | 0.22 |
| AMTW | ≤ 0.2 |
| HYQE | ≤ 0.2 |
| TPGM | ≤ 0.2 |
| IRNI | ≤ 0.2 |
| QYDS | ≤ 0.2 |
| HKKT | ≤ 0.2 |
| EPFG | ≤ 0.2 |
| GWLI | ≤ 0.2 |
| ETCR | ≤ 0.2 |

| Variant | one-hybrid fitness for binding parS DNA |
| --- | --- |
| RKII | ≤ 0.2 |
| SSLA | ≤ 0.2 |
| LADP | ≤ 0.2 |
| WNAL | ≤ 0.2 |
| MRGY | ≤ 0.2 |
| QFMG | ≤ 0.2 |
| RQNP | ≤ 0.2 |
| RCKL | ≤ 0.2 |
| WYAL | ≤ 0.2 |
| DLDR | ≤ 0.2 |
| IMHM | ≤ 0.2 |
| TNSN | ≤ 0.2 |
| AWPS | ≤ 0.2 |
| QNTC | ≤ 0.2 |
| ARRW | ≤ 0.2 |
| QKEE | ≤ 0.2 |
| VSNK | ≤ 0.2 |
| MLRG | ≤ 0.2 |
| EPAP | ≤ 0.2 |
| KAHR | ≤ 0.2 |
| DCTR | ≤ 0.2 |
| PNNV | ≤ 0.2 |
| CQGA | ≤ 0.2 |
| LTHI | ≤ 0.2 |
| MRVR | ≤ 0.2 |

| Variant | one-hybrid fitness for binding parS DNA |
| --- | --- |
| KVSW | ≤ 0.2 |
| QYTD | ≤ 0.2 |
| TITC | ≤ 0.2 |
| QKPY | ≤ 0.2 |
| RMML | ≤ 0.2 |
| TQTS | ≤ 0.2 |
| FPTG | ≤ 0.2 |
| RYQG | 0.971 |
| QVKE | ≤ 0.2 |
| SINS | ≤ 0.2 |
| KRAS | ≤ 0.2 |
| HCGP | ≤ 0.2 |
| RETF | ≤ 0.2 |
| IGAT | ≤ 0.2 |
| RPFK | ≤ 0.2 |
| RIIS | 0.994 |
| APSV | ≤ 0.2 |
| VGPC | ≤ 0.2 |
| HHML | ≤ 0.2 |
| CPNL | ≤ 0.2 |
| LGHT | ≤ 0.2 |
| IRSF | ≤ 0.2 |
